# Test results published in the supplement of paper PMC8728848.
# The other results are listed elsewhere or left out.
# Legend:
# Assay in all cases: glycan array binding signal (z-score within array); higher = stronger binding
# Conditions in all cases: glycan notation: IUPAC condensed, linker removed
# GalNAc(b1-3)Gal = molecular target: GalNAc(b1-3)Gal
# Summary of the method: (§1)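 From the Consortium for Functional Glycomics database, 3228 arrays were curated, keeping only those whose protein sequence was available. Binding is given as a within-array Z-score averaged across arrays sharing a protein sequence and across linkers. Negative Z-scores can be read as non-binding.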
# [1] = molecular target: GalNAc(b1-3)Gal(a1-4)Gal(b1-4)GlcNAc
# Summary of the method: as §1
# [2] = molecular target: GalNAc(b1-3)Gal(a1-4)Gal(b1-4)GlcNAc(b1-3)Gal(b1-4)Glc
# Summary of the method: as §1
# [3] = molecular target: GalNAc(b1-3)Gal(a1-6)Gal(b1-4)Glc
# Summary of the method: as §1
# GalNAc(b1-3)GalNAc = molecular target: GalNAc(b1-3)GalNAc
# Summary of the method: as §1
# GalNAc(b1-3)GlcNAc = molecular target: GalNAc(b1-3)GlcNAc
# Summary of the method: as §1
# GalNAc(b1-4)Gal(b1-4)Glc = molecular target: GalNAc(b1-4)Gal(b1-4)Glc
# Summary of the method: as §1
# GalNAc(b1-4)GlcNAc = molecular target: GalNAc(b1-4)GlcNAc
# Summary of the method: as §1
# [4] = molecular target: GalNAc(b1-4)GlcNAc(b1-2)Man
# Summary of the method: as §1
# [5] = molecular target: GalNAc(b1-4)GlcNAc(b1-2)Man(a1-3)[GalNAc(b1-4)GlcNAc(b1-2)Man(a1-6)]Man(b1-4)GlcNAc(b1-4)GlcNAc
# Summary of the method: as §1
# [6] = molecular target: GalNAc(b1-4)GlcNAc(b1-3)GalNAc(b1-4)GlcNAc
# Summary of the method: as §1
# GalNAc(b1-4)GlcNAc6S = molecular target: GalNAc(b1-4)GlcNAc6S
# Summary of the method: as §1
# GalNAc(b1-6)GalNAc = molecular target: GalNAc(b1-6)GalNAc
# Summary of the method: as §1
# GalNAc3S(b1-4)GlcNAc = molecular target: GalNAc3S(b1-4)GlcNAc
# Summary of the method: as §1
# GalNAc3S(b1-4)GlcNAc3S = molecular target: GalNAc3S(b1-4)GlcNAc3S
# Summary of the method: as §1
# [7] = molecular target: GalNAc3S(b1-4)[Fuc(a1-3)]GlcNAc
# Summary of the method: as §1
# GalNAc4S6S(b1-4)GlcNAc = molecular target: GalNAc4S6S(b1-4)GlcNAc
# Summary of the method: as §1
# GalNAc6S(b1-4)GlcNAc = molecular target: GalNAc6S(b1-4)GlcNAc
# Summary of the method: as §1
# Glc(a1-4)Glc = molecular target: Glc(a1-4)Glc
# Summary of the method: as §1
# [8] = molecular target: Glc(a1-4)Glc(a1-4)Glc(a1-4)Glc
# Summary of the method: as §1
# Glc(a1-6)Glc(a1-6)Glc = molecular target: Glc(a1-6)Glc(a1-6)Glc
# Summary of the method: as §1
# [9] = molecular target: Glc(a1-6)Glc(a1-6)Glc(a1-6)Glc
# Summary of the method: as §1
# Glc(b1-4)Glc = molecular target: Glc(b1-4)Glc
# Summary of the method: as §1
# Glc(b1-6)Glc = molecular target: Glc(b1-6)Glc
# Summary of the method: as §1
# GlcA(b1-3)Gal = molecular target: GlcA(b1-3)Gal
# Summary of the method: as §1
# GlcA(b1-3)GlcNAc = molecular target: GlcA(b1-3)GlcNAc
# Summary of the method: as §1
# GlcA(b1-6)Gal = molecular target: GlcA(b1-6)Gal
# Summary of the method: as §1
# [10] = molecular target: GlcA3S(b1-3)Gal(b1-4)GlcNAc(b1-2)Man
# Summary of the method: as §1
# [11] = molecular target: GlcA3S(b1-3)Gal(b1-4)GlcNAc(b1-3)Gal(b1-4)Glc
# Summary of the method: as §1
# [12] = molecular target: GlcNAc(a1-3)Gal(b1-4)GlcNAc
# Summary of the method: as §1
# [13] = molecular target: GlcNAc(a1-4)Gal(b1-3)GlcNAc
# Summary of the method: as §1
# [14] = molecular target: GlcNAc(a1-4)Gal(b1-4)GalNAc
# Summary of the method: as §1
# [15] = molecular target: GlcNAc(a1-4)Gal(b1-4)GlcNAc
# Summary of the method: as §1
# [16] = molecular target: GlcNAc(a1-4)Gal(b1-4)GlcNAc(b1-3)Gal(b1-4)Glc
# Summary of the method: as §1
# [17] = molecular target: GlcNAc(a1-4)Gal(b1-4)GlcNAc(b1-3)Gal(b1-4)GlcNAc
# Summary of the method: as §1
# [18] = molecular target: GlcNAc(a1-4)Gal(b1-4)GlcNAc(b1-3)Gal(b1-4)GlcNAc(b1-3)Gal(b1-4)GlcNAc
# Summary of the method: as §1
# [19] = molecular target: GlcNAc(a1-4)Gal(b1-4)GlcNAc(b1-3)Gal(b1-4)[Fuc(a1-3)]GlcNAc(b1-3)Gal(b1-4)[Fuc(a1-3)]GlcNAc
# Summary of the method: as §1
# [20] = molecular target: GlcNAc(a1-6)Gal(b1-4)GlcNAc
# Summary of the method: as §1
binder,measurement,setting,value
Na-CTL-1 (Necator americanus) (protein) MQRSFLLLLVVLAGAWAVNTTIPLKLMGGFTPMKYQCVGRVSDIWADVLFLIESSDMITKSGFRQVIAFITATTKKMTIGQDEKQTRVGFITYGEEAKLIYDLDHWRSTEKLSDLVQKIPYVKSSGTNIAAAIALANKVFNSPTHRPNVPKVMVIVANGLKKGSQNPIPVATAFKDFGGIIITIEYTQYDNIQVPILKKIASEGYNIRSNDEDFSVRTLTNMLLQANCFCPDHYVPFRVNNPEFGCFVTAKIPSMWRDAAEMCRAVEEGKLVKVENEEKAAFIMKLVGPKKEAWIGLRYYGNKFQWTDGTKLNADDFNLWPEDIKELNGPHCVSMYQDQKDKKYYWRAGKCLEDMRYVCEVQPCSASNYCSEPVFMYRQKHRALLPAPPPPPN,glycan array binding signal (z-score),GalNAc(b1-3)Gal,-0.036
same,glycan array binding signal (z-score),[1],0.987
same,glycan array binding signal (z-score),[2],-0.168
same,glycan array binding signal (z-score),[3],-0.388
same,glycan array binding signal (z-score),GalNAc(b1-3)GalNAc,-0.358
same,glycan array binding signal (z-score),GalNAc(b1-3)GlcNAc,-0.615
same,glycan array binding signal (z-score),GalNAc(b1-4)Gal(b1-4)Glc,0.032
same,glycan array binding signal (z-score),GalNAc(b1-4)GlcNAc,1.86
same,glycan array binding signal (z-score),[4],-0.422
same,glycan array binding signal (z-score),[5],-0.397
same,glycan array binding signal (z-score),[6],-0.514
same,glycan array binding signal (z-score),GalNAc(b1-4)GlcNAc6S,-0.439
same,glycan array binding signal (z-score),GalNAc(b1-6)GalNAc,0.164
same,glycan array binding signal (z-score),GalNAc3S(b1-4)GlcNAc,-0.26
same,glycan array binding signal (z-score),GalNAc3S(b1-4)GlcNAc3S,-0.209
same,glycan array binding signal (z-score),[7],-0.516
same,glycan array binding signal (z-score),GalNAc4S6S(b1-4)GlcNAc,-0.341
same,glycan array binding signal (z-score),GalNAc6S(b1-4)GlcNAc,-0.43
same,glycan array binding signal (z-score),Glc(a1-4)Glc,-0.637
same,glycan array binding signal (z-score),[8],-0.045
same,glycan array binding signal (z-score),Glc(a1-6)Glc(a1-6)Glc,-0.486
same,glycan array binding signal (z-score),[9],-0.131
same,glycan array binding signal (z-score),Glc(b1-4)Glc,-0.001
same,glycan array binding signal (z-score),Glc(b1-6)Glc,-0.292
same,glycan array binding signal (z-score),GlcA(b1-3)Gal,0.144
same,glycan array binding signal (z-score),GlcA(b1-3)GlcNAc,0.371
same,glycan array binding signal (z-score),GlcA(b1-6)Gal,-0.043
same,glycan array binding signal (z-score),[10],0.146
same,glycan array binding signal (z-score),[11],1.18
same,glycan array binding signal (z-score),[12],-0.386
same,glycan array binding signal (z-score),[13],-0.246
same,glycan array binding signal (z-score),[14],0.127
same,glycan array binding signal (z-score),[15],-0.192
same,glycan array binding signal (z-score),[16],-0.616
same,glycan array binding signal (z-score),[17],-0.456
same,glycan array binding signal (z-score),[18],-0.269
same,glycan array binding signal (z-score),[19],0.608
same,glycan array binding signal (z-score),[20],-0.383
